Reference: the supplement of paper PMC10126150
Values marked as one replicate rest on one cluster of the flow cell; about a third of the high ones do not repeat.

Each sequence was assayed on ATP (assay: switch fluorescence ratio, 500 uM ATP over buffer (Cy3 cluster intensity, sum of 5 cycles each) (fold (ratio)); higher = stronger signal-on switching upon ATP binding; sequences stand for … in TCGTCGGCAGCGTCAGATGTGTATAAGAGACAGTTTTTTTTTTTTTTTTTTTTTTTTT…TC). Details: aptamer strand: ATP DNA aptamer (quencher-CACCTGGGGGAGTATTGCGGAGGAAGG + anchor), 100 nM annealed; ATP concentration: 500 uM; one replicate.
Summary of the method: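 Cy3-labelled switching-strand clusters on a modified Illumina MiSeq flow-cell were annealed to 100 nM quencher-labelled ATP aptamer, imaged in selection buffer, then imaged after 15 min with 500 uM ATP at 22 °C. Five buffer/ATP cycles ran, with NaOH stripping and re-annealing between them. The fluorescence ratio is summed target-cycle over summed buffer-cycle Cy3 intensity per cluster, averaged per switch-domain sequence. Clusters outside 100-1000 RFU were excluded.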
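Further: ATP exposure 15 min at 22 °C before imaging.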

| Sequence | switch fluorescence ratio |
| --- | --- |
| CTTAGTTGA | 0.99 |
| CTTATATCAG | 0.95 |
| CTTATCGCGC | 0.963 |
| CTTATCTGAA | 0.983 |
| CTTATTAGGA | 0.987 |
| CTTATTGCTG | 0.999 |
| CTTATTGGCA | 1.01 |
| CTTATTTGAA | 1.11 |
| CTTATTTTGG | 0.993 |
| CTTCAAGGAT | 1.03 |
| CTTCACAACC | 1.25 |
| CTTCACCTTA | 1.07 |
| CTTCCAACAG | 1.46 |
| CTTCCGACAA | 3.65 |
| CTTCCGGTTG | 1.28 |
| CTTCGATGAT | 0.982 |
| CTTCGCCCGG | 1.31 |
| CTTCGGGGTA | 0.994 |
| CTTCTAGGTA | 1.03 |
| CTTCTCACCC | 1.03 |
| CTTCTCCGAC | 5.13 |
| CTTCTGGTAA | 1.03 |
| CTTCTGTTCC | 1.04 |
| CTTCTTCAAC | 1.07 |
| CTTCTTTAAC | 1.03 |
| CTTGACCACG | 0.946 |

| Sequence | switch fluorescence ratio |
| --- | --- |
| CTTGACCCGC | 1.51 |
| CTTGAGCGAC | 1.41 |
| CTTGAGCGAT | 1.52 |
| CTTGATTAGT | 1.02 |
| CTTGCATACC | 1.74 |
| CTTGCGAAT | 0.991 |
| CTTGCGGAC | 1.41 |
| CTTGCGGCG | 1.06 |
| CTTGCTCCAT | 1.27 |
| CTTGCTTGAC | 1.08 |
| CTTGGAACT | 1.03 |
| CTTGGAGGAG | 0.987 |
| CTTGGAGTAT | 1 |
| CTTGGATATA | 1.03 |
| CTTGGATCT | 0.994 |
| CTTGGCATTA | 1.22 |
| CTTGGCCGTC | 0.984 |
| CTTGGCGAAG | 0.993 |
| CTTGGCTCGA | 1.01 |
| CTTGGCTTAC | 1.05 |
| CTTGGGATT | 1.01 |
| CTTGGGCATC | 1.05 |
| CTTGGGGTTG | 0.981 |
| CTTGGTCCTA | 0.985 |
| CTTGGTTATA | 1 |
| CTTGTACCTG | 1.08 |

| Sequence | switch fluorescence ratio |
| --- | --- |
| CTTGTCAATG | 1.01 |
| CTTGTCACAA | 0.971 |
| CTTGTCAGCT | 0.977 |
| CTTGTCAGGT | 1.01 |
| CTTGTGAGTG | 0.986 |
| CTTGTTACGG | 0.983 |
| CTTGTTTAAG | 1.03 |
| CTTTAAAGAT | 1.07 |
| CTTTAAAGC | 1.06 |
| CTTTAAATCG | 0.988 |
| CTTTAACCAT | 0.971 |
| CTTTAACGCG | 1.01 |
| CTTTAATTAT | 0.998 |
| CTTTACAGGT | 1.03 |
| CTTTAGATCG | 1.01 |
| CTTTAGCGCG | 0.976 |
| CTTTAGGAAG | 0.944 |
| CTTTCAACTA | 0.962 |
| CTTTCAAGGG | 0.968 |
| CTTTCAGCCA | 0.986 |
| CTTTCCAAAT | 1.02 |
| CTTTCGGAAG | 0.994 |
| CTTTCGGGTA | 0.99 |
| CTTTCGGTAC | 2.73 |
| CTTTCTGGTA | 0.998 |
| CTTTGCAGG | 3.16 |

| Sequence | switch fluorescence ratio |
| --- | --- |
| CTTTGGAAA | 0.944 |
| CTTTGGAGGG | 1 |
| CTTTGGCCTG | 0.989 |
| CTTTGGGTCC | 1.04 |
| CTTTTAAAT | 1.13 |
| CTTTTAACTA | 1.05 |
| CTTTTAAGCG | 1.01 |
| CTTTTAGTAA | 0.983 |
| CTTTTATAAA | 0.991 |
| CTTTTCGAGA | 1.05 |
| CTTTTCGTGG | 0.966 |
| CTTTTCTCAG | 0.981 |
| CTTTTGAAAA | 0.969 |
| CTTTTGACAT | 0.952 |
| CTTTTGGCGG | 1.03 |
| CTTTTTCTAG | 0.96 |
| CTTTTTCTTA | 1.02 |
| CTTTTTTTCA | 1.06 |
| GAAAAACAAA | 1.06 |
| GAAAAATCGC | 0.997 |
| GAAAACAAAC | 1.51 |
| GAAAACGTTT | 1.05 |
| GAAAAGACAG | 1.05 |
| GAAAAGCCGC | 1.08 |
| GAAAAGTAAT | 0.989 |
| GAAAAGTGGG | 0.973 |

| Sequence | switch fluorescence ratio |
| --- | --- |
| GAAAATCGAA | 1.36 |
| GAAAATGGCC | 1.01 |
| GAAACGTGGG | 0.98 |
| GAAACGTGTT | 0.977 |
| GAAACTAGAA | 0.995 |
| GAAACTCA | 1.01 |
| GAAACTGGAT | 0.979 |
| GAAAGAAGC | 1.01 |
| GAAAGACCG | 1.02 |
| GAAAGCTGTT | 0.936 |
| GAAAGGAAAC | 0.986 |
| GAAAGGAGCT | 0.985 |
| GAAAGGCTGG | 0.987 |
| GAAAGTCCAG | 0.998 |
| GAAAGTCGGT | 0.982 |
| GAAATGTTTA | 0.97 |
| GAACAAGCCT | 1.18 |
| GAACAAGCTT | 0.956 |
| GAACACATTC | 1.04 |
| GAACACCTTA | 1.08 |
| GAACACTCGA | 1.02 |
| GAACAGCT | 1.04 |
| GAACCACGGA | 1.04 |
| GAACCACTT | 1.04 |
| GAACCCTAGA | 1.02 |
| GAACCCTCCG | 2.89 |

| Sequence | switch fluorescence ratio |
| --- | --- |
| GAACCTTAGA | 1.04 |
| GAACGAGCAG | 1.06 |
| GAACGCCGCC | 1.65 |
| GAACGTAGCT | 1.07 |
| GAACGTATTT | 1.04 |
| GAACTACGGG | 1.02 |
| GAACTATGGT | 1.15 |
| GAACTATTT | 1.05 |
| GAACTCCACA | 1.39 |
| GAACTTACGT | 1.11 |
| GAACTTTCCT | 2.08 |
| GAACTTTGAT | 0.979 |
| GAACTTTTTC | 1.4 |
| GAAGAAATTA | 1.04 |
| GAAGAAGCAA | 1.54 |
| GAAGAATTAG | 0.96 |
| GAAGAATTTT | 1.01 |
| GAAGAGAATG | 0.953 |
| GAAGAGGTTC | 1.08 |
| GAAGAGTCAG | 1.01 |
| GAAGATAAAA | 1.01 |
| GAAGATCTTG | 0.982 |
| GAAGCAAGTG | 1.57 |
| GAAGCCGGAT | 0.941 |
| GAAGCGACCT | 1.03 |
| GAAGCGAGAG | 2.2 |

| Sequence | switch fluorescence ratio |
| --- | --- |
| GAAGCGAGGT | 1.02 |
| GAAGCGATCG | 0.991 |
| GAAGCGGCGT | 0.972 |
| GAAGCGGTAT | 1.43 |
| GAAGCGGTCG | 1.01 |
| GAAGCTACAT | 1.04 |
| GAAGCTTAAC | 2.17 |
| GAAGGAAGCG | 0.982 |
| GAAGGAGCAT | 1.04 |
| GAAGGATGGT | 0.957 |
| GAAGGATTG | 1.03 |
| GAAGGCAGAA | 1.03 |
| GAAGGCCTTC | 0.999 |
| GAAGGCTTTT | 0.988 |
| GAAGGGGAGA | 0.985 |
| GAAGGGGTA | 1.11 |
| GAAGGTATGC | 0.976 |
| GAAGGTTTTT | 1.01 |
| GAAGTACGGT | 1.18 |
| GAAGTATTAA | 0.971 |
| GAAGTGCCTG | 0.985 |
| GAAGTGCTTA | 1.05 |
| GAAGTGGGCA | 0.977 |
| GAATACAGGG | 1.05 |
| GAATACCGCG | 1.1 |
| GAATAGAAGC | 0.974 |

| Sequence | switch fluorescence ratio |
| --- | --- |
| GAATCAAACT | 1.07 |
| GAATCAAGAA | 0.989 |
| GAATCCCGGT | 1.03 |
| GAATCGCACG | 1.07 |
| GAATCGGTTA | 0.991 |
| GAATCGTTCG | 1.02 |
| GAATGAGTAG | 1.01 |
| GAATGAGTGG | 0.985 |
| GAATGCTTCA | 0.964 |
| GAATGGCACC | 1.03 |
| GAATGGCGGC | 1.03 |
| GAATGTCTGG | 1 |
| GAATGTTCGT | 0.993 |
| GAATTAATA | 1.01 |
| GAATTACCGG | 1.01 |
| GAATTCCTAT | 0.998 |
| GAATTCGGCC | 0.985 |
| GAATTCGTTC | 0.952 |
| GAATTCTGGA | 0.961 |
